These results are taken from PubChem BioAssay (NCI).

This test deals with MDA-MB-468 breast. The test is described as follows: growth of human tumour cells (NCI), 48 h.

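1) Cells in 96-well plates. 2) Compound, 48 h, 5 concentrations. 3) Linear interpolation between surrounding doses. 4) Unreached endpoint = highest concentration. TGI: total growth inhibition.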 For part of its entries the source gives two or more results. They are shown here; other results are not. An entry can have further records. A record mostly stands for its own series of concentrations, which the source does not state; a value can be the end of its range. Numbered stars: 1 amine (or outer) side, 2 acyl side, 3 side chain; on linkers, the order of the positions; unused ones are H or OH. Bridge positions count the residues as written; N and C are the ends. Square brackets hold non-standard residues; d marks the D form. Peptide text beside a SMILES is read from it. * marks the point of attachment. ξ: configuration not given here. Phe(3,5-F2) = N[C@@H](Cc1cc(F)cc(F)c1)C(=O)O; ξThr(3S) = C[C@H](O[*:3])C(N[*:1])C(=O)[*:2]; Pro(4R-Me) = C[C@H]1CN[C@H](C(=O)O)C1; Pip = O=C(O)[C@@H]1CCCCN1; X1 = Cc1ccc(N*)c(F)c1; CO = O=C([*:1])[*:2]

Take `Cc1ccc(NC(=O)N[C@@H](Cc2cc(F)cc(F)c2)C(=O)NC2C(=O)N3CCC[C@H]3C(=O)N3CCCC[C@H]3C(=O)N[C@@H](C)C(=O)N3C[C@H](C)C[C@H]3C(=O)O[C@H]2C)c(F)c1` (stereo partly drawn) ({X1-CO}-[Phe(3,5-F2)][ξThr(3S)]P[Pip]A[Pro(4R-Me)]; ester 2-C): the TGI is 10.6 µM and 845 nM.
